Data from PMC4336329 (PLoS ONE, 2015).
Among all 310,000 compounds or so, about 2,200 (0.71%) showed an effect of 50% or more. The effect is printed as a negative number. This is one part of the list.

Target: human ether-à-go-go-related gene (hERG) potassium channel (human, UniProt Q12809)
Assay: primary screen, population patch clamp on CHO cells stably expressing hERG

Sequence of human ether-à-go-go-related gene (hERG) potassium channel (Q12809 whole entry, looked up): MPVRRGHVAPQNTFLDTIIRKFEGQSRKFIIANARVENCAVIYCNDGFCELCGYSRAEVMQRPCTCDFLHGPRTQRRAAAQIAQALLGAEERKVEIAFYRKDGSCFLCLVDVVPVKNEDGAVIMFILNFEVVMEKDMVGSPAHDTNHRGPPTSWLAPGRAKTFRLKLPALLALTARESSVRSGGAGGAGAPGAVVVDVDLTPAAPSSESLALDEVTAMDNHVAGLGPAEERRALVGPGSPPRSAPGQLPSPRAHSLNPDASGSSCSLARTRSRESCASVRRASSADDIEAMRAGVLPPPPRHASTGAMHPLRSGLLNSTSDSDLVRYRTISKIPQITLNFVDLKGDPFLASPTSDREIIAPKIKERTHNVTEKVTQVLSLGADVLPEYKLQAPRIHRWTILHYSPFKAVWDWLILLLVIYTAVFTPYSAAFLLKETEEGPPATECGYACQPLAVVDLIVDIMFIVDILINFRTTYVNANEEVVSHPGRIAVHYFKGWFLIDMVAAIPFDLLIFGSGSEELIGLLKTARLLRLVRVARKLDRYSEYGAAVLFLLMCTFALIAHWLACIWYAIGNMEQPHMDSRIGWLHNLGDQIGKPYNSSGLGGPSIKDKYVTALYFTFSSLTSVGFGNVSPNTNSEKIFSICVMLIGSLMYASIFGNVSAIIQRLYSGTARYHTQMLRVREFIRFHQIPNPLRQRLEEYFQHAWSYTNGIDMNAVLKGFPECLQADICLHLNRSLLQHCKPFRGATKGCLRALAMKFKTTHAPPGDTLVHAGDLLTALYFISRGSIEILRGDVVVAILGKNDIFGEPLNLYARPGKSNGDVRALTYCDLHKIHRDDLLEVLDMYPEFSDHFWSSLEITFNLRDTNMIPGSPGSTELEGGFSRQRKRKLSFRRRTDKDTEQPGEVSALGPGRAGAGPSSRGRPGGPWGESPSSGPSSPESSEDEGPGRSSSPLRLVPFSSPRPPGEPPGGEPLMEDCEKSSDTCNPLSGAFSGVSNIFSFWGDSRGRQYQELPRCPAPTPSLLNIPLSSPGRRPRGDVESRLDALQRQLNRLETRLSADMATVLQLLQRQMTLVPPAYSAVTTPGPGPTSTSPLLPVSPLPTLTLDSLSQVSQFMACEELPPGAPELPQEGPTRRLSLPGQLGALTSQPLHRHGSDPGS

First: CCOCCCNS(=O)(=O)Cc1ccccc1
Second: Cc1ccnc(NC(=O)c2cc(S(=O)(=O)NCc3ccccc3)ccc2C)c1
The “hERG current change (%, negative = inhibition) at 1uM” value of the first is higher: 9.06% for the first, 4.6% for the second.

Compared with `O=C(Cc1ccccc1)NCC(=O)N/N=C/c1ccc(C(=O)O)cc1`, `O=C(O)c1ccc(N/N=C/c2cc3ccccc3nc2Cl)cc1` is higher in “hERG current change (%, negative = inhibition) at 1uM” value: 9.98% for the first, 16.7% for the second.

Compared with `COc1ccc(CCNC(=O)CSc2nc3ccsc3c(=O)n2CC2CCC(C(=O)O)CC2)cc1OC` (stereo not shown), `COc1ccc(C(C(=O)NC2CCCC2)N(Cc2ccc(F)cc2)C(=O)c2ccn[nH]2)cc1OC` (stereo not shown) is lower in “hERG current change (%, negative = inhibition) at 1uM” value: 15.4% for the first, 11.6% for the second.

First: CC(C)CCN(C(=O)CCSc1ccc(F)cc1)c1c(N)n(Cc2ccccc2)c(=O)[nH]c1=O
Second: COCCN(C(=O)CN1CCN(S(=O)(=O)c2ccc(F)cc2)CC1)c1c(N)n(Cc2ccccc2)c(=O)[nH]c1=O
The “hERG current change (%, negative = inhibition) at 1uM” value of the first is higher: 16.9% for the first, 14.5% for the second.

Compared with `Cc1cccc(OCc2n[nH]c(=S)o2)c1C`, `Cc1nc(CC(=O)N2CCN(c3cccc(C)c3C)CC2)cs1` is lower in “hERG current change (%, negative = inhibition) at 1uM” value: 0.599% for the first, -2.55% for the second.

Compared with `Cc1ccccc1C(=O)Nc1ccnn1C1CCN(C2CCSCC2)CC1`, `O=C(Nc1cccc(F)c1)N1CCC(c2ccccc2)CC1` is higher in “hERG current change (%, negative = inhibition) at 1uM” value: -2.27% for the first, 10.4% for the second.

Going from `CCOC(=O)c1ccc(NC(=O)c2nn(CC)cc2Br)cc1` to `CCn1cc(CNC(=O)CCc2ccc(OC)cc2)cn1`, the “hERG current change (%, negative = inhibition) at 1uM” value falls from 13.1% to 6.08%.

First: CCOC(=O)C1=C(C)N=c2s/c(=C\c3ccc(OCC(=O)O)c(OC)c3)c(=O)n2C1c1ccc(OC)cc1 (stereo not shown)
Second: COc1ccc(CNC(=O)c2cnc3scc(C)n3c2=O)cc1
The “hERG current change (%, negative = inhibition) at 1uM” value of the first is higher: 11.4% for the first, -2.45% for the second.

Compared with `CC1C/C(=N/Nc2ccc([N+](=O)[O-])cc2[N+](=O)[O-])CC(C)(C)C1` (stereo not shown), `O=C(c1cc([N+](=O)[O-])cc([N+](=O)[O-])c1)N(Cc1nnc(-c2ccccc2Cl)o1)C1CC1` is lower in “hERG current change (%, negative = inhibition) at 1uM” value: 12.7% for the first, 3.67% for the second.

Going from `CCn1cc(C(=O)NCCCN2CCC(C)CC2)c(=O)c2cc(S(=O)(=O)N(C)C3CCCCC3)ccc21` to `CCOc1cc(S(=O)(=O)NC2CCCC2)ccc1Cl`, the “hERG current change (%, negative = inhibition) at 1uM” value rises from -74% to 16.3%.

Going from `COc1ccc(C(C(=O)NC2CCCCC2)N(C(=O)c2sc(C)nc2C)c2ccccc2C)cc1` (stereo not shown) to `CCSc1ccccc1C(=O)NCc1ccc(OC)cc1`, the “hERG current change (%, negative = inhibition) at 1uM” value rises from -0.607% to 12%.

First: Cc1cccc(C(=O)NNC(=O)CSc2nnc(C3CC3)n2C)c1
Second: Cc1cccc(NC(=O)NNC(=O)c2c(Cl)c(C)nn2C)c1
The “hERG current change (%, negative = inhibition) at 1uM” value of the first is higher: 20.3% for the first, 12.3% for the second.

Going from `CC1=C(C#N)C(NC(=O)c2ccc(C)cc2)(C(F)(F)F)C(=O)N1` (stereo not shown) to `O=C(Nc1ccc(C(F)(F)F)cc1)c1ccc2nc[nH]c2c1`, the “hERG current change (%, negative = inhibition) at 1uM” value falls from 21.9% to 14.1%.

Compared with `CCCCCCNCc1c(F)cccc1Cl`, `CCCCn1c(-c2ccco2)n[nH]c1=S` is higher in “hERG current change (%, negative = inhibition) at 1uM” value: 6.71% for the first, 12.2% for the second.

Compared with `O=c1[nH]n2c(-c3ccccc3)nc(O)c2c2ccccc12`, `CCCC(=O)N(c1ccc(C(=O)O)cc1)c1nc(-c2ccccc2)c(C)s1` is higher in “hERG current change (%, negative = inhibition) at 1uM” value: -3.38% for the first, 7.28% for the second.

Compared with `COc1ccc(C2=NOC(c3nnc(-c4ccccc4)o3)C2)cc1` (stereo not shown), `Cc1ccc(C)c(Nc2nc3ccccc3n3cnnc23)c1` is lower in “hERG current change (%, negative = inhibition) at 1uM” value: 12.5% for the first, 6.83% for the second.

Going from `Cc1cc(NC(=O)COC(=O)C2CCN(S(=O)(=O)c3ccc(Cl)cc3)CC2)no1` to `CC(=O)Nc1ccc(NC(=O)C(C)OC(=O)c2cccc(S(=O)(=O)N3CCCC3)c2)cc1` (stereo not shown), the “hERG current change (%, negative = inhibition) at 1uM” value falls from 13.4% to 9.69%.

Going from `CS(=O)(=O)N(Cc1ccccc1)c1ccc(C(=O)NCc2ccccc2)cc1` to `O=C1COc2ccc(C(=O)c3ccccc3C(=O)NCc3ccccc3)cc2N1`, the “hERG current change (%, negative = inhibition) at 1uM” value falls from 20.1% to 5.86%.

Compared with `O=C(O)CCC(=O)N1CCN(c2ncccn2)CC1`, `Cc1cccc(CC(=O)N2CCN(C(=O)c3ccco3)CC2)c1` is lower in “hERG current change (%, negative = inhibition) at 1uM” value: 16.3% for the first, 5.56% for the second.

Going from `COc1ccc(C2(CNC(C)=O)CCCC2)cc1OC` to `COc1cc(NS(=O)(=O)c2ccc(OC)c(OC)c2)cc(OC)c1`, the “hERG current change (%, negative = inhibition) at 1uM” value falls from 6.75% to 6.27%.

Compared with `O=C(Nc1ccc(Cl)c(Cl)c1)Nc1cc(C(=O)NC2CC2)ccc1Cl`, `O=C(Nc1ccon1)Nc1cccc(Cl)c1Cl` is higher in “hERG current change (%, negative = inhibition) at 1uM” value: 8.3% for the first, 9.81% for the second.

Compared with `COc1ccccc1NC(=S)N1CC(C)OC(C)C1` (stereo not shown), `CCOC(=O)C1CCCN(C(=O)COc2ccccc2F)C1` (stereo not shown) is higher in “hERG current change (%, negative = inhibition) at 1uM” value: 13.6% for the first, 18% for the second.

Compared with `O=C(CSc1cccc[n+]1[O-])Nc1cc2c(cc1Cl)C(=O)c1ccccc1C2=O`, `Cc1c(NC(=O)c2ccccc2NS(=O)(=O)c2ccc(Br)cc2)c(=O)n(-c2ccccc2)n1C` is lower in “hERG current change (%, negative = inhibition) at 1uM” value: 8.33% for the first, 3.92% for the second.

First: Cc1ccc(S(=O)(=O)c2c(C)cc(C)[nH]c2=O)cc1
Second: CCNS(=O)(=O)c1ccc(NS(C)(=O)=O)cc1
The “hERG current change (%, negative = inhibition) at 1uM” value of the first is higher: 19.5% for the first, 4.47% for the second.

Going from `COc1cc(Cn2nnc3ccccc32)cc(Br)c1O` to `COc1ccc(NC(=O)CNS(=O)(=O)c2cccc3nonc23)c(OC)c1`, the “hERG current change (%, negative = inhibition) at 1uM” value falls from 7.6% to -1.08%.

Going from `CCOC(=O)C1CCN(C(=O)c2cccc(C(=O)N3CCC(C(=O)OCC)CC3)c2)CC1` to `CCN(CC(=O)Nc1ccc(NC(C)=O)cc1)C(=O)CSC(=S)N1CCCC1`, the “hERG current change (%, negative = inhibition) at 1uM” value rises from 10% to 15.1%.

First: CC(/C=C1\SC(=S)N(CC(=O)N2CCN(c3ccccc3)CC2)C1=O)=C\c1ccccc1
Second: Oc1ccc(N2CCN(C(=S)NCCc3ccccc3)CC2)cc1
The “hERG current change (%, negative = inhibition) at 1uM” value of the first is lower: 2.67% for the first, 3.64% for the second.

First: COc1ccc(/C=N/NC(=O)c2c(C)nc3ccccn23)cc1[N+](=O)[O-]
Second: COc1ccccc1N1CCN(/N=C/c2cccc(O)c2)CC1
The “hERG current change (%, negative = inhibition) at 1uM” value of the first is lower: 13.7% for the first, 15.7% for the second.

Going from `CC(/C=N/n1c(-c2cccnc2)n[nH]c1=S)=C\c1ccccc1` to `COc1ccc(OCC(=O)OCCNC(=O)c2cccnc2)cc1.Cl`, the “hERG current change (%, negative = inhibition) at 1uM” value rises from -0.374% to 14.7%.

Compared with `Cc1[nH]c2ccccc2c1C(=O)CN1C(=O)C(=O)N(CCC2=CCCCC2)C1=O`, `CN1c2ccsc2C(O)=C(C(=O)Nc2ccccc2)S1(=O)=O` is lower in “hERG current change (%, negative = inhibition) at 1uM” value: 12.1% for the first, 6.45% for the second.

Compared with `Cc1cnc(CN(C)Cc2c(C(=O)N3CCc4ccccc4C3)nc3ccc(Cl)cn23)[nH]1`, `Cn1c(C(=O)N[C@@H](Cc2ccccc2)C(=O)NCCC(=O)O)cc2cc(Cl)ccc21` is higher in “hERG current change (%, negative = inhibition) at 1uM” value: -12.4% for the first, 14.1% for the second.

Going from `CCOC(=O)c1c(S(=O)(=O)NCC(=O)Nc2cccc(F)c2)c(C)n(C)c1C` to `CN(CC(=O)Nc1cccc(F)c1)C(=O)c1sc2ccccc2c1Cl`, the “hERG current change (%, negative = inhibition) at 1uM” value falls from 10.8% to -6.05%.

Compared with `O=C(CNC(=O)N1CC(=O)Nc2ccccc21)NCCc1ccc(Cl)cc1`, `CN1C(=O)c2ccccc2C(C(=O)O)C1c1cccc(Cl)c1` (stereo not shown) is lower in “hERG current change (%, negative = inhibition) at 1uM” value: 13.5% for the first, 8.65% for the second.

Compared with `CC(NC(=O)c1ccc2c(c1)OCCO2)c1ccc(S(N)(=O)=O)cc1` (stereo not shown), `O=S(=O)(c1ccc2c(c1)OCCO2)N1CCN(Cc2ccc3c(c2)OCO3)CC1` is higher in “hERG current change (%, negative = inhibition) at 1uM” value: -3.42% for the first, 4.33% for the second.

First: COc1cc(NC(=O)c2cccc(Cl)c2)c(OC)cc1NC(=O)CN1CCCCC1
Second: O=C(CN1CCSCC1)N/N=C/c1ccc(F)c(F)c1
The “hERG current change (%, negative = inhibition) at 1uM” value of the first is higher: 11.7% for the first, -3.11% for the second.

Going from `CO/N=C/c1ccc(N2CCOCC2)c([N+](=O)[O-])c1` to `CCOc1ccccc1N1CCN(C(=O)Cc2ccc(S(=O)(=O)N3CCOCC3)s2)CC1`, the “hERG current change (%, negative = inhibition) at 1uM” value falls from 12.5% to -8.55%.

Going from `COc1ccc(N2CCN(C(=O)CSc3nnnn3-c3ccc4c(c3)OCCO4)CC2)cc1` to `Cc1ccc(C)c(NC(=O)Cn2ccn(-c3ccc4c(c3)OCO4)c(=O)c2=O)c1`, the “hERG current change (%, negative = inhibition) at 1uM” value rises from -0.828% to 8.45%.

First: O=c1cccc2n1CC1CNCC2C1 (stereo not shown)
Second: Cc1ccc(-c2ccc(CCC(=O)O)n2CC2CCCO2)cc1 (stereo not shown)
The “hERG current change (%, negative = inhibition) at 1uM” value of the first is higher: 23.1% for the first, 13.6% for the second.

First: COc1ccc(NCC(O)COc2ccc(C(C)(C)C)cc2)cc1 (stereo not shown)
Second: CC(C)(C)c1ccc(C(=O)NNC(=O)c2ccc(Cl)cc2)cc1
The “hERG current change (%, negative = inhibition) at 1uM” value of the first is higher: 5.45% for the first, 4.09% for the second.

Compared with `Cc1n[nH]c(C)c1CCN(C)C(=O)C1CCC(=O)N(CC2CCCCC2)C1` (stereo not shown), `CC(C)CCC1(CN2CCCC2=O)C(=O)NC(=O)NC1=O` is lower in “hERG current change (%, negative = inhibition) at 1uM” value: 16.3% for the first, 14.8% for the second.

Compared with `Cc1ccc(C)c(/C(O)=C2/C(=O)C(=O)N(CCN3CCOCC3)C2c2ccc(C)o2)c1` (stereo not shown), `S=C(NCCCN1CCOCC1)Nc1ccc(Nc2ccccc2)cc1` is higher in “hERG current change (%, negative = inhibition) at 1uM” value: 4.04% for the first, 13.5% for the second.

Compared with `COc1cc(C2C(C#N)=C(C)NC3=C2C(=O)c2ccccc23)cc(OC)c1OC` (stereo not shown), `COc1ccccc1CNC(=O)COC(=O)c1cnccn1` is lower in “hERG current change (%, negative = inhibition) at 1uM” value: 16% for the first, 9.09% for the second.

Going from `CC1C/C(=C/c2ccco2)C(=O)/C(=C/c2ccco2)C1` (stereo not shown) to `Cc1nc2cc(O)ccc2n1C`, the “hERG current change (%, negative = inhibition) at 1uM” value rises from 13.6% to 14.7%.

First: COc1ccc(CC(=O)OCC(=O)NC(=O)NC23CC4CC(CC(C4)C2)C3)cc1
Second: CC1CCCC(NC(=O)CN(C)S(=O)(=O)c2cnc[nH]2)C1C (stereo not shown)
The “hERG current change (%, negative = inhibition) at 1uM” value of the first is lower: -8.5% for the first, 4.93% for the second.
